This is an account of results in the supplement of paper PMC11417369.

± gives the standard deviation of the averaged measurements. The list shows a part of the results.

The test concerns PfAP2-LT AP2 domain (GST-tagged). Put plainly: gcPBM binding intensity (ln(normalized median fluorescence intensity)); higher = stronger DNA binding. Put shortly:
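GST-fused DNA-binding domains of P. falciparum, expressed in E. coli, were applied at about 25 μg on average for 1 h to an Agilent 4 × 180k array of primer-extended double-stranded 36-bp intergenic genomic probes and negative controls. Binding intensity is the highest Masliner-normalised natural-log median intensity across replicate spots of either probe orientation, measured with Alexa488 anti-GST antibody and a 488 nm scan.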
Take “TATTTGCTACATATATGTACTAAAAACTTTTTGCTT [XGTACX_site2362]”: the “gcPBM binding intensity (ln)” value worked out at 8.87 ± 0.63. Turning to “TATTATAAAAATATTCAGATACATTAACTTACTTTT [XGTACX_negctrl_site4]”, the “gcPBM binding intensity (ln)” value stood at 8.31 ± 0.48. The figure for “TATCAATTTTTCTGGCTATCCAATTAGGGGAAGCCA [CACACA_negctrl_site1045]” is 8.24 ± 0.37; for “TTATGTCATAAATGCACACATATACATTGTTTTGAT [CACACA_site646]” it is 9.15 ± 0.31. The same measure for “TCTTTAACAAGTTAAACACACATACATAAATACATA [CACACA_site5406]”: 8.82 ± 0.41. The figure for “ATATAAATAAACAGGTGTACTATAATGTTCATAGTA [XGTACX_site1553]” is 8.85 ± 0.49.

On to “TATGATTTCACATAATGTACTTGCTAATTCGTGAAT [XGTACX_site1408]”, for which the “gcPBM binding intensity (ln)” value came to 8.72 ± 0.39. Turning to “GGGAAAATATTTGGGTGTACAAACAAATTAGCTAGC [XGTACX_site6795]”, the “gcPBM binding intensity (ln)” value was determined as 8.94 ± 0.47. The figure for “TAATTATATATATATGCATGTTATAATTTTTATTTT [TGCATGCA_site78]” is 8.71 ± 0.41; for “AAGAAAATATAAAATGCACACTATAAATTGTATTTA [CACACA_site4257]” it is 8.78 ± 0.39. The figure for “TTTACAGGAAAAAATACACACATTATTTTACCTTAT [CACACA_site2833]” is 8.83 ± 0.49; for “CAATAAAAATTAAAATGTACAAATAAATATAAATAT [XGTACX_site7265]” it is 8.85 ± 0.48.

On to “ACATGCCAAAATCTAATACAATAATAATAAAAAAAA [XGTACX_negctrl_site160]”, for which the “gcPBM binding intensity (ln)” value was determined as 8.69 ± 0.45. Consider “CATTTACATGCCAACATGCACTGAACAATCTTTATA [GTGCAC_site9797]”, for which the “gcPBM binding intensity (ln)” value is 8.73 ± 0.45. On to “ACAAAACTTTTAAGAACACACAAAAATGTACTATCG [CACACA_site7245]”, for which the “gcPBM binding intensity (ln)” value is 8.77 ± 0.47. Consider “TTTTATGAATAATTATGTACATAACAAATGATATAT [XGTACX_site8318]”, for which the “gcPBM binding intensity (ln)” value was 8.6 ± 0.46. Regarding “CCCTATATAAATAGCTGTACATTTGAACATGTTCAG [XGTACX_site2187]”, the “gcPBM binding intensity (ln)” value stood at 8.71 ± 0.37. As to “TACAAAAAAAAATAAAATACATATATATATATATAT [XGTACX_negctrl_site608]”, the “gcPBM binding intensity (ln)” value turned out to be 9.71 ± 0.17. The same measure for “GAAAATGAAATCCTTGCATGTAAAATTAAAATAGAA [TGCATGCA_site569]”: 8.71 ± 0.52; for “TTTTTTTCTTAAAGATGTACTTTTTAAAAATAATCT [XGTACX_site1429]”: 8.2 ± 0.59. The figure for “GTAGTAATAAATTAAAGTACAGAATATATTATACTA [XGTACX_site2809]” is 8.79 ± 0.47. The same measure for “ATGAATTATAAATATTCACACAATATTTTTCATATG [CACACA_site4484]”: 8.76 ± 0.4. As to “AGTGTGCTCAGCTTAGCACAAATTGGAATACCATGT [CACACA_negctrl_site367]”, the “gcPBM binding intensity (ln)” value was 9.04 ± 0.38. The same measure for “TATATACTCAGACATACACACAAATAAAAAAACACC [CACACA_site5820]”: 9.53 ± 0.27; for “TTATGTGATTTTAATTGTACATAAATATTTGTTAAC [XGTACX_site3489]”: 8.56 ± 0.42. As for “CACGCATACAGACACACACACACACGGATATAAATA [CACACA_site6445]”, the “gcPBM binding intensity (ln)” value was found to be 10.2 ± 0.4. The same measure for “AAATATAGTATTAAAACACACATTTATATAAAAAGG [CACACA_site1482]”: 8.86 ± 0.47.

Turning to “TGAACTCATAGGAAAACACACATATGTGTAATATAT [CACACA_site4267]”, the “gcPBM binding intensity (ln)” value was determined as 9.3 ± 0.41.

For the sequence “AACAAAAAAACAAACACACACACACGCATATTTATA [CACACA_site7680]”, the “gcPBM binding intensity (ln)” value amounted to 10.2 ± 0.29. For the sequence “AAAAACAACACAGATAAATTAACACACACACACATA [XGTACX_negctrl_site588]”, the “gcPBM binding intensity (ln)” value came out at 10.1 ± 0.12.

On to “TTTTTTTATACAATTTTATATATTAAATATTATAAT [CACACA_negctrl_site226]”, for which the “gcPBM binding intensity (ln)” value amounted to 8.41 ± 0.47. Regarding “AAAGAAAACGGACTTTGTACTTAAATATAATATAAA [XGTACX_site8585]”, the “gcPBM binding intensity (ln)” value worked out at 8.63 ± 0.44. Regarding “TAAAGTTATATATTATGTACATATTTGTATACATTT [XGTACX_site2516]”, the “gcPBM binding intensity (ln)” value was found to be 8.93 ± 0.41.

For CAATAAATCGAAATCGTGCACGGACACATGCAGTAG, the “gcPBM binding intensity (ln)” value turned out to be 9.21 ± 0.38. On to “GGTTCATTTATATGGAGTACAAAAAATATGTATATA [XGTACX_site8209]”, for which the “gcPBM binding intensity (ln)” value was found to be 8.65 ± 0.45. In the case of “AAATAATATAAATACACACACACATATATAAATACA [CACACA_site4465]”, the “gcPBM binding intensity (ln)” value was found to be 10 ± 0.14.

Turning to “ATATATATAATAAGTGGTACAAGTTATTCATTAAAT [XGTACX_site7063]”, the “gcPBM binding intensity (ln)” value was found to be 8.85 ± 0.53. The figure for “TTTTTATATAAATAATGTACATTTGGTTTTATTATA [XGTACX_site2125]” is 8.62 ± 0.47. The same measure for “ACAAAAATATTATATTGTACATTATTAGTTCATATT [XGTACX_site6750]”: 8.78 ± 0.41; for “AACACCCACAGACACACACACAAAAATGATTAAAAA [CACACA_site2433]”: 9.69 ± 0.46; for “TATTTGTATAAATAAAAATAATATATATCAAATAAC [CACACA_negctrl_site218]”: 8.54 ± 0.42. Regarding “AATTTTTTTTTTTTTTTTTCTTTTGTAATAAACCAT [XGTACX_negctrl_site334]”, the “gcPBM binding intensity (ln)” value turned out to be 8.4 ± 0.56. Regarding “TTCAGCATAAACACTTGTACATATATACTAAAAATT [XGTACX_site7272]”, the “gcPBM binding intensity (ln)” value worked out at 8.63 ± 0.44.

“AAAAAAAAAAAACACACACACACACCGAAATATATA [CACACA_site4261]”: the “gcPBM binding intensity (ln)” value was determined as 9.99 ± 0.33.
